# According to PubChem BioAssay AID504332 (National Center for Advancing Translational Sciences (NCATS), 2011):
# The whole screen tested about 350,000 compounds, of which about 31,000 (8.9%) were called active. This list was built around the results that the source calls inconclusive (neither active nor inactive); the mix of calls is not that of the screen. Calls come from the whole dose curve; as a rule, active = well fitted inhibition curve with a large enough effect; inconclusive = small, poorly fitted or top-dose-only effect; inactive = no such curve, though single readings can be large or run the other way. A potency beside an inconclusive call is a rough fit, not a confirmed value.
# Target: Histone-lysine N-methyltransferase EHMT2 (Homo sapiens) (UniProt Q96KQ7)
# Experiment: qHTS Assay for Inhibitors of Histone Lysine Methyltransferase G9a; note: nearly all actives have a fitted effect of over 75% in size
# Conditions: G9a H3K9 monomethylation, AlphaScreen, 2 h; activity, negative = inhibition: at 59 µM (top of the series) unless noted
# In short: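 Signal arises when biotinylated H3K9 peptide, once monomethylated, bridges streptavidin donor and antibody-captured acceptor beads. Enzyme at 20 nM was preincubated 15 min with test compounds; peptide 500 nM and SAM 20 uM then reacted for 2 h.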
# % is set by controls: 0 for no effect and ±100 for the full control effect; potency is the fitted concentration of half-maximal effect; tags give direction and shape of the fitted curve.
# UniProt Q96KQ7, sequence (Q96KQ7 whole entry, looked up): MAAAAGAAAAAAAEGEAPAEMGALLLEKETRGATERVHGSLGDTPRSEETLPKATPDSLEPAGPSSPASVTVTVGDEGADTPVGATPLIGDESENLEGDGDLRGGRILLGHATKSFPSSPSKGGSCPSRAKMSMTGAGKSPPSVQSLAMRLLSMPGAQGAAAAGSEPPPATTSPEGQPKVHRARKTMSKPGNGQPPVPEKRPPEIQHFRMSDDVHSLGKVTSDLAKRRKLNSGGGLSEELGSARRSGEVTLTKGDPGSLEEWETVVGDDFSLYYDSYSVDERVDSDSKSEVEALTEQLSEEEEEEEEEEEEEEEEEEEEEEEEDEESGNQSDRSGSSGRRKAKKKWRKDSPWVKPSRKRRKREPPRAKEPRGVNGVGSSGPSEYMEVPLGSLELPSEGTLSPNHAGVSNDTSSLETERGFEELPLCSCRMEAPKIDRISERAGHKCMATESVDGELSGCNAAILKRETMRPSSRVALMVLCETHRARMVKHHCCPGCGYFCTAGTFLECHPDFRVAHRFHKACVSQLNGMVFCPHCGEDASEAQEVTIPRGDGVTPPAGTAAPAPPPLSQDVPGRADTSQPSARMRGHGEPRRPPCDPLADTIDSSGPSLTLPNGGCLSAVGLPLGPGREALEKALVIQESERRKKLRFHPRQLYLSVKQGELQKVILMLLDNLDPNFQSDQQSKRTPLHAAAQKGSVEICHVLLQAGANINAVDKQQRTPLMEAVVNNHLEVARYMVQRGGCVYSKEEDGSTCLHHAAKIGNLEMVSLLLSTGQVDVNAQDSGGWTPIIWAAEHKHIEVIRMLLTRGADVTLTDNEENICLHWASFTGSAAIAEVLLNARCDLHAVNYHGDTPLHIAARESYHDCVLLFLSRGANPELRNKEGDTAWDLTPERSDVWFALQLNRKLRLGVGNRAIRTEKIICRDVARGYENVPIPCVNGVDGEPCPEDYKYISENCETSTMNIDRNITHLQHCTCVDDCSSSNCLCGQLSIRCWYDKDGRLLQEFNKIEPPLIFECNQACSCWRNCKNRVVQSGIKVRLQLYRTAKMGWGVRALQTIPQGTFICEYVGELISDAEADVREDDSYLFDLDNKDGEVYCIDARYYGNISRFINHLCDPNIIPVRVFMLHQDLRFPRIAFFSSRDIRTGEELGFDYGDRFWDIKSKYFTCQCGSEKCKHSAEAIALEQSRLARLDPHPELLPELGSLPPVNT
Compound,Potency,"activity, negative = inhibition"
O=C(Nc1ccccc1C(=O)O)c1cccc(C(=O)Nc2ccccc2C(=O)O)c1,"inconclusive: 89.1 µM [inhibitor, single point]",
O=C(O)C1Cc2ccccc2CN1C(=O)COc1ccc(Cl)cc1 (stereo not given),active: 44.7 µM,
COC(=O)c1c(NC(=O)CCS(=O)(=O)c2ccccc2)sc2c1CCN(C)C2,"inconclusive: 79.4 µM [inhibitor, single point]",
CC(C)(C)NC(=O)Nc1ccc(F)c(Cl)c1,inactive,
CCOC(=O)CNC(=O)C1CCN(S(=O)(=O)c2ccc(-c3nn[nH]n3)cc2)CC1,"inconclusive: 89.1 µM [inhibitor, single point]",
CC(=O)n1cc(N(C(=O)CCl)c2ccc([N+](=O)[O-])cc2)c2ccccc21,active: 50.1 µM,
O=C1NC2(CCCCC2)N=C1c1ccc(F)cc1,inactive,
CCc1ccc(NC(=O)CSc2nc(NS(=O)(=O)c3ccccc3)cc(=O)[nH]2)cc1,"inconclusive: 56.2 µM [inhibitor, partial curve, poor fit]",
O=C(O)c1coc2ccccc12,"inconclusive: 89.1 µM [inhibitor, single point]",
Cc1cccnc1NC(=O)CCNC(=O)c1ccc(Br)cc1,inactive,
CCCCn1c(SCC(=O)c2ccccc2)nc2c1c(=O)[nH]c(=O)n2C,,inconclusive: -57.1% [inhibitor]
COc1ccc2cc3cc(C(=O)Nc4ccccc4C)oc3nc2c1,"inconclusive: 31.6 µM [inhibitor, partial curve, poor fit]",
c1ccc(-n2nnnc2-n2nnc3ccccc32)cc1,,inactive: -2.86% [at 12.7 µM]
c1cncc(-c2nnc(-c3cccnc3)nn2)c1,active: 8.91 µM,
O=C(c1ccccc1Cl)N1CCN(CCc2ccccn2)CC1,"inconclusive: 10 µM [inhibitor, partial curve, poor fit]",
COc1ccccc1N1CCNC(C)C1=O (stereo not given),,inactive: -5.23% [at 0.501 µM]
O=C(CSc1nc(-c2ccco2)nc2cc(=O)[nH]n12)Nc1ccccc1F,"inconclusive: 1.58 µM [inhibitor, partial curve, poor fit]",
Cc1cc2occ(CC(=O)OCC(=O)Nc3sc4c(c3C#N)CCC(C)C4)c2cc1C (stereo not given),"inconclusive: 89.1 µM [inhibitor, single point]",
CCOC(=O)N1CCN(S(=O)(=O)c2ccc(C(=O)N(CCN(C)C)c3nc4c(C)cccc4s3)cc2)CC1,active: 44.7 µM,
CC(C)(C)NC(=O)CN(Cc1cccnc1)C(=O)c1csnn1,"inconclusive: 79.4 µM [inhibitor, partial curve, poor fit]",
Cc1ccc(-n2c(SCC(=O)N3CCCCC3)nc(O)c(Cc3ccccc3)c2=O)cc1,"inconclusive: 70.8 µM [inhibitor, partial curve, poor fit]",
Cc1ccccc1NC(=O)c1ccc(F)c(S(=O)(=O)NC2CCCC2)c1,inactive,
Cc1ccc(CC(=S)N2CCOCC2)cc1,active: 8.91 µM,
CCCCCCCCCC(=O)OCC(CO)OC(=O)CCCCCCCCC (stereo not given),inactive,

Compound,Potency,"activity, negative = inhibition"
CCCn1c(N)c(N(CCOC)C(=O)c2ccc([N+](=O)[O-])cc2Cl)c(=O)[nH]c1=O,active: 50.1 µM,
Nc1ccc(-c2ccc(N)c(C(=O)O)c2)cc1C(=O)O,,inconclusive: -79.3% [inhibitor]
Cc1ccc(NC(=O)Nc2ccc3nc(N4CCN(C)CC4)cc(C)c3c2)cc1C,"inconclusive: 3.16 µM [inhibitor, partial curve, poor fit]",
CCCOC(=O)c1ccc(Nc2nc3ccccc3nc2-n2nc(C)cc2C)cc1,inactive,
COc1ccc(C(CC(=O)N2CCOCC2)c2c(OC)cc(OC)c3ccc(=O)oc23)cc1 (stereo not given),,inactive: -5.44% [at 12.7 µM]
CC(=O)c1ccc(N2CCN(C(=O)CCC(=O)c3cccs3)CC2)cc1,inactive,
COc1ccc(NC(=O)Cn2c(CCC(=O)O)ccc2-c2ccccc2)cc1,"inconclusive: 89.1 µM [inhibitor, single point]",
Cc1ccccc1C(=O)NC1CCN(C(=O)N(c2ccccc2)c2ccccc2)CC1,,inactive: 18.1% [at 2.33 µM]
N#Cc1cccc(NC(=O)N2CCC3(CC2)CCN(C(=O)c2cnccn2)CC3)c1,,inactive: 5.23% [at 12.7 µM]
O=[N+]([O-])c1ccccc1Sc1nccn1Cc1ccccc1,active: 50.1 µM,
COc1ccc(C(C)=O)c(Oc2ccc(S(=O)(=O)N3CCOCC3)cn2)c1,,inactive: 5.38% [at 2.33 µM]
CCN(CCC(=O)Nc1ccc(Br)c(C)c1)Cc1ccccc1,"inconclusive: 89.1 µM [inhibitor, single point]",
CC/C(C)=N\N=C\c1c(O)n(CC)c2cc(C3=NNC(=O)CC3)ccc12,active: 8.91 µM,
CC1(C)CC(N2CCCC2)=CC(=[N+]2CCCC2)C1,"inconclusive: 2 µM [inhibitor, full curve, poor fit]",
Cc1ccc(S(=O)(=O)CCc2nc3ccccc3n2CCC#N)cc1,"inconclusive: 2.51 µM [inhibitor, partial curve, poor fit]",
CNC(=O)c1cc2c(s1)CCCCCC2,"inconclusive: 25.1 µM [inhibitor, single point]",
O=C(CSc1ncc2c(n1)-c1ccccc1N(Cc1ccc(F)cc1)S2(=O)=O)NCc1ccccc1,inactive,
CCOC(=O)c1sc(=S)n(-c2cc(OC)ccc2OC)c1N,"inconclusive: 2.51 µM [inhibitor, partial curve, poor fit]",
CCc1cc(-c2n[nH]c(=S)n2CC(C)C)cs1,active: 1.78 µM,
CCOC(=O)c1c(C)[nH]c(C(=O)C(C)Cl)c1C (stereo not given),inactive,
NS(=O)(=O)c1ccc(NC(=O)CN2CCN(S(=O)(=O)/C=C/c3ccccc3)CC2)cc1,,inconclusive: -56.8% [inhibitor]
c1ccc(SCc2cn(C[C@H]3CC[C@@H]([C@@H]4CC[C@H](Cn5cc(CSc6ccccc6)nn5)O4)O3)nn2)cc1,"inconclusive: 89.1 µM [inhibitor, single point]",
C=CCn1c(-c2cnn(-c3ccccc3)c2N)n[nH]c1=S,active: 7.94 µM,
COC(=O)c1ccc(Cl)cc1NC(=O)N1CCC(CN2CCCC2)CC1,"inconclusive: 39.8 µM [inhibitor, partial curve, poor fit]",

Compound,Potency,"activity, negative = inhibition"
CCC(C(=O)OCC(=O)Nc1cccc(S(=O)(=O)NC2=NCCCCC2)c1)c1ccccc1 (stereo not given),"inconclusive: 11.2 µM [inhibitor, partial curve, poor fit]",
CC1CCN(S(=O)(=O)c2cc([N+](=O)[O-])ccc2Cl)CC1,"inconclusive: 50.1 µM [inhibitor, partial curve]",
Cc1cc2ncn(S(=O)(=O)c3ccc(F)cc3)c2cc1C,"inconclusive: 89.1 µM [inhibitor, single point]",
COc1cccc(-c2cc(C(=O)O)no2)c1,"inconclusive: 10 µM [inhibitor, partial curve]",
Cc1nc2cnc(N3CCOCC3)nc2n(CCc2ccccc2)c1=O,,inactive: 4.54% [at 0.501 µM]
Cc1sc2ncn(CC(=O)NCCCOC(C)C)c(=O)c2c1S(=O)(=O)N1CCN(c2ncccn2)CC1,"inconclusive: 79.4 µM [inhibitor, partial curve, poor fit]",
CC(=O)c1ccc2c(c1)C1C=CCC1C(c1ccncc1)N2 (stereo not given),"inconclusive: 12.6 µM [inhibitor, partial curve, poor fit]",
CCc1ccccc1N(C)S(=O)(=O)c1ccc2[nH]cc(C(=O)NCCOC)c(=O)c2c1,inactive,
COc1ccc2cc3cc(C(=O)NCCc4ccccc4)sc3nc2c1Cl,inactive,
Cc1n[nH]c(C)c1S(=O)(=O)N1CCC(C(=O)Nc2cccc(F)c2)CC1,"inconclusive: 50.1 µM [inhibitor, partial curve, poor fit]",
O=C(c1ccc(CNc2c(N3CCCC3)c(=O)c2=O)cc1)N1CCc2ccccc2C1,"inconclusive: 0.708 µM [inhibitor, full curve, poor fit]",
Nc1nc(Cl)cc(NCCc2ccccc2)n1,"inconclusive: 89.1 µM [inhibitor, single point]",
CCOc1cc(C2C(C#N)=C(N)OC(C)=C2C(C)=O)c(Br)c(Br)c1OC(C)C (stereo not given),"inconclusive: 28.2 µM [inhibitor, single point]",
O=C(/C=C/c1cccc([N+](=O)[O-])c1)NCCSCc1ccccc1Cl,"inconclusive: 31.6 µM [inhibitor, single point]",
CCOC(=O)CNC(=S)n1ncnc1N,inactive,
COC(=O)c1c(C)[nH]c(C(=O)C(C)Sc2nnc(-c3cc(OC)c(OC)c(OC)c3)o2)c1C (stereo not given),"inconclusive: 89.1 µM [inhibitor, single point]",
CN(C)c1ccc(S(=O)(=O)NCC(=O)NCc2ccccc2)cc1[N+](=O)[O-],active: 44.7 µM,
C=CCNC(=O)/C(C#N)=C/c1c(N2CCN(c3cccc(Cl)c3)CC2)nc2c(C)cccn2c1=O,"inconclusive: 1.26 µM [inhibitor, single point]",
CC1(C)CC(=O)C(C(C2=C(O)CC(C)(C)CC2=O)c2ccc(O)c([N+](=O)[O-])c2)=C(O)C1,active: 35.5 µM,
CCCCCCn1c(SCC(C)C)nc2c1c(=O)[nH]c(=O)n2C,"inconclusive: 79.4 µM [inhibitor, single point]",
C=CC[C@H]1CC(Cc2ccccc2)=C[C@H](CC=C)N1,active: 44.7 µM,
COC(=O)C(Cc1c[nH]c2ccccc12)NC(=O)C(=O)c1c[nH]c2ccccc12 (stereo not given),active: 31.6 µM,
